Reference: PMC9911399, “Two distinct binding modes provide the RNA-binding protein RbFox with extraordinary sequence specificity”
Changes are numbered by the printed parent chain; changes in the protein carry UniProt numbers. The list shows a part of the results.

B1: GCGAGAC (DNA:RNA)
RNA: GGGAGACCGGAAUUCAGAUUGUCCGCGAGACUUAAAUCCCGUCGUAGCCACCA
DNA 1: CAATCTGAATTCCGGTCTCCC
DNA 2: TGGTGGCTACGACGGGATT
B2: GAUCCUC (DNA:RNA)
RNA: B1 RNA with C26A, G27U, A28C, G29C, A30U
DNA 1: CAATCTGAATTCCGGTCTCCC
DNA 2: TGGTGGCTACGACGGGATT
B3: ACCUCAC (DNA:RNA)
RNA: B1 RNA with G25A, G27C, A28U, G29C
DNA 1: CAATCTGAATTCCGGTCTCCC
DNA 2: TGGTGGCTACGACGGGATT
B4: GUGACAA (DNA:RNA)
RNA: B1 RNA with C26U, G29C, C31A
DNA 1: CAATCTGAATTCCGGTCTCCC
DNA 2: TGGTGGCTACGACGGGATT
B5: CGUGCAU (DNA:RNA)
RNA: B1 RNA with G25C, C26G, G27U, A28G, G29C, C31U
DNA 1: CAATCTGAATTCCGGTCTCCC
DNA 2: TGGTGGCTACGACGGGATT
B6: CCGUCCA (DNA:RNA)
RNA: B1 RNA with G25C, A28U, G29C, A30C, C31A
DNA 1: CAATCTGAATTCCGGTCTCCC
DNA 2: TGGTGGCTACGACGGGATT
B7: ACUCAAG (DNA:RNA)
RNA: B1 RNA with G25A, G27U, A28C, G29A, C31G
DNA 1: CAATCTGAATTCCGGTCTCCC
DNA 2: TGGTGGCTACGACGGGATT
B8: UUAUAGA (DNA:RNA)
RNA: GGGAGACCGGAAUUCAGAUUGUCCUUAUAGAUUAAAUCCCGUCGUAGCCACCA
DNA 1: CAATCTGAATTCCGGTCTCCC
DNA 2: TGGTGGCTACGACGGGATT
B9: GCUUAUG (DNA:RNA)
RNA: B1 RNA with G27U, A28U, G29A, A30U, C31G
DNA 1: CAATCTGAATTCCGGTCTCCC
DNA 2: TGGTGGCTACGACGGGATT
B10: GUACAAG (DNA:RNA)
RNA: B8 RNA with U25G, U28C, G30A, A31G
DNA 1: CAATCTGAATTCCGGTCTCCC
DNA 2: TGGTGGCTACGACGGGATT
B11: UCUUGAG (DNA:RNA)
RNA: B1 RNA with G25U, G27U, A28U, C31G
DNA 1: CAATCTGAATTCCGGTCTCCC
DNA 2: TGGTGGCTACGACGGGATT
B12: ACUGAGU (DNA:RNA)
RNA: B8 RNA with U25A, U26C, A27U, U28G, A31U
DNA 1: CAATCTGAATTCCGGTCTCCC
DNA 2: TGGTGGCTACGACGGGATT
B13: UAACAUA (DNA:RNA)
RNA: B8 RNA with U26A, U28C, G30U
DNA 1: CAATCTGAATTCCGGTCTCCC
DNA 2: TGGTGGCTACGACGGGATT
B14: AAGUUGU (DNA:RNA)
RNA: B8 RNA with U25A, U26A, A27G, A29U, A31U
DNA 1: CAATCTGAATTCCGGTCTCCC
DNA 2: TGGTGGCTACGACGGGATT
B15: CGCGAUC (DNA:RNA)
RNA: B1 RNA with G25C, C26G, G27C, A28G, G29A, A30U
DNA 1: CAATCTGAATTCCGGTCTCCC
DNA 2: TGGTGGCTACGACGGGATT
B16: CGAAUUA (DNA:RNA)
RNA: B8 RNA with U25C, U26G, U28A, A29U, G30U
DNA 1: CAATCTGAATTCCGGTCTCCC
DNA 2: TGGTGGCTACGACGGGATT
B17: CUAUACG (DNA:RNA)
RNA: B8 RNA with U25C, G30C, A31G
DNA 1: CAATCTGAATTCCGGTCTCCC
DNA 2: TGGTGGCTACGACGGGATT
B18: AGGAAGA (DNA:RNA)
RNA: B8 RNA with U25A, U26G, A27G, U28A
DNA 1: CAATCTGAATTCCGGTCTCCC
DNA 2: TGGTGGCTACGACGGGATT
B19: UAAGCUU (DNA:RNA)
RNA: B8 RNA with U26A, U28G, A29C, G30U, A31U
DNA 1: CAATCTGAATTCCGGTCTCCC
DNA 2: TGGTGGCTACGACGGGATT
B20: GACUUGU (DNA:RNA)
RNA: B8 RNA with U25G, U26A, A27C, A29U, A31U
DNA 1: CAATCTGAATTCCGGTCTCCC
DNA 2: TGGTGGCTACGACGGGATT
B21: ACGUGAA (DNA:RNA)
RNA: B1 RNA with G25A, A28U, C31A
DNA 1: CAATCTGAATTCCGGTCTCCC
DNA 2: TGGTGGCTACGACGGGATT
B22: UUCGGUC (DNA:RNA)
RNA: B1 RNA with G25U, C26U, G27C, A28G, A30U
DNA 1: CAATCTGAATTCCGGTCTCCC
DNA 2: TGGTGGCTACGACGGGATT
B23: GACGCAC (DNA:RNA)
RNA: B1 RNA with C26A, G27C, A28G, G29C
DNA 1: CAATCTGAATTCCGGTCTCCC
DNA 2: TGGTGGCTACGACGGGATT
B24: CAGGAUC (DNA:RNA)
RNA: B1 RNA with G25C, C26A, A28G, G29A, A30U
DNA 1: CAATCTGAATTCCGGTCTCCC
DNA 2: TGGTGGCTACGACGGGATT
B25: GUUAUCC (DNA:RNA)
RNA: B1 RNA with C26U, G27U, G29U, A30C
DNA 1: CAATCTGAATTCCGGTCTCCC
DNA 2: TGGTGGCTACGACGGGATT
B26: CGAGCAA (DNA:RNA)
RNA: B8 RNA with U25C, U26G, U28G, A29C, G30A
DNA 1: CAATCTGAATTCCGGTCTCCC
DNA 2: TGGTGGCTACGACGGGATT
B27: CUUAUGA (DNA:RNA)
RNA: B8 RNA with U25C, A27U, U28A, A29U
DNA 1: CAATCTGAATTCCGGTCTCCC
DNA 2: TGGTGGCTACGACGGGATT
B28: GAAACUA (DNA:RNA)
RNA: B1 RNA with C26A, G27A, G29C, A30U, C31A
DNA 1: CAATCTGAATTCCGGTCTCCC
DNA 2: TGGTGGCTACGACGGGATT
B29: UUCAGUG (DNA:RNA)
RNA: B1 RNA with G25U, C26U, G27C, A30U, C31G
DNA 1: CAATCTGAATTCCGGTCTCCC
DNA 2: TGGTGGCTACGACGGGATT
B30: ACAGCGA (DNA:RNA)
RNA: B8 RNA with U25A, U26C, U28G, A29C
DNA 1: CAATCTGAATTCCGGTCTCCC
DNA 2: TGGTGGCTACGACGGGATT
B31: GACACAA (DNA:RNA)
RNA: B1 RNA with C26A, G27C, G29C, C31A
DNA 1: CAATCTGAATTCCGGTCTCCC
DNA 2: TGGTGGCTACGACGGGATT

target: T1, RBFOX1 RRM RbFoxmut (Fox-RRM*) (Homo sapiens, UniProt Q9NWB1 109-208, R118D;E147R;N151S;E152T); test: EMSA; HiTS-Eq, 1 nM pool, 10 min; buffer printed only for the single-RNA assays: 10 mM Tris pH 7.5, 150 mM NaCl, 3.4 mM EDTA, 0.001% NP-40, 30 C; details: tags: His6 N-terminal (pET28a); label: 5' 32P
T1 sequence: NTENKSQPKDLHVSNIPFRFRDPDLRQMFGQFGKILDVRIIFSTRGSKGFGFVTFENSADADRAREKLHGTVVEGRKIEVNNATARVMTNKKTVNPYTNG
Method in brief: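 Purified RbFox RRM (wild type or mutant) was equilibrated for 10 min in 50 µL with 1 nM of a 5′-radiolabelled pool of RNA with 7 randomized nucleotides, its flanks annealed to DNA oligonucleotides, across increasing protein concentrations. Free RNA was separated by 8% native PAGE, excised, reverse-transcribed, PCR-barcoded and sequenced on an Illumina HiSeq 2500. Relative association constants came from read-count changes of each variant against the control reaction, normalised to the cognate motif.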

Binder	binding signal
B1	0.0912 KA relative to UGCAUGU
B2	0.043 KA relative to UGCAUGU
B3	0.107 KA relative to UGCAUGU
B4	0.0515 KA relative to UGCAUGU
B5	0.102 KA relative to UGCAUGU
B6	0.0522 KA relative to UGCAUGU
B7	0.124 KA relative to UGCAUGU
B8	0.0835 KA relative to UGCAUGU
B9	0.142 KA relative to UGCAUGU
B10	0.0906 KA relative to UGCAUGU
B11	0.125 KA relative to UGCAUGU
B12	0.0926 KA relative to UGCAUGU
B13	0.0756 KA relative to UGCAUGU
B14	0.176 KA relative to UGCAUGU
B15	0.0943 KA relative to UGCAUGU
B16	0.12 KA relative to UGCAUGU

Binder	binding signal
B17	0.117 KA relative to UGCAUGU
B18	0.0888 KA relative to UGCAUGU
B19	0.0842 KA relative to UGCAUGU
B20	0.201 KA relative to UGCAUGU
B21	0.113 KA relative to UGCAUGU
B22	0.0775 KA relative to UGCAUGU
B23	0.103 KA relative to UGCAUGU
B24	0.0958 KA relative to UGCAUGU
B25	0.0984 KA relative to UGCAUGU
B26	0.0729 KA relative to UGCAUGU
B27	0.107 KA relative to UGCAUGU
B28	0.115 KA relative to UGCAUGU
B29	0.131 KA relative to UGCAUGU
B30	0.0908 KA relative to UGCAUGU
B31	0.0477 KA relative to UGCAUGU
